The test system of this assay is NCI-H322M lung. The assay is described as follows: DTP human tumour cell line panel, 48 h.

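These data come from cells grown in 96-well plates and exposed to compound for 48 hours at five concentrations. GI50 = concentration required for 50% inhibition of growth. TGI marks complete inhibition of growth.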

Turning to `O=C(NNc1nc2cc(F)ccc2n2c(CN3CC4CNCC4C3)ccc12)c1ccncn1` (stereo not drawn), the GI50 (as a rule, the concentration giving 50% growth inhibition) is 1 µM and the total growth inhibition concentration (TGI) (as a rule, the concentration at which net growth stops) was 13.4 µM.
On to `CC1=C(C(=O)OCc2ccccc2)C(c2cccc3ccccc23)n2c(nc3ccccc32)N1` (stereo not drawn), for which the GI50 was 8.39 µM and the TGI is over 100 µM.
On the same counts, the results for `CC1(C)CC[C@]2(C(=O)O)CC[C@]3(C)C(=CCC4[C@@]5(C)C[C@@H](O)[C@@H]6OC(c7ccco7)OC[C@@]6(C)C5CC[C@]43C)C2C1` (stereo partly drawn) are 7.21 µM and 25.3 µM.
Consider `Cc1cc2nc3c4ccccc4n(CCCN(C)C)c3nc2cc1C`, for which the GI50 was 2.41 µM and the concentration for total growth inhibition (TGI) is 7.2 µM.

These data come from PubChem BioAssay (NCI).
